Experimental findings from PubChem BioAssay AID1963972 (Molecular Pharmacology Branch, DTP, NCI, 2024) are described below.

The assay relates to 945468-187-T-J2-PDC spheroids viability. As to the kind of experiment: Anticancer human tumor 945468-187-T-J2-PDC patient-derived rectal carcinoma cell line growth inhibition [PI3K]. Conditions: spheroids with HUVEC and MSC; for viability, T/C: stronger effect = lower value. An excerpt: Combinatorial screen of targeted agents with the PI3K inhibitors inavolisib, alpelisib, duvelisib, and copanlisib in multi-cell type tumor spheroids
A high-throughput screen of multi-cell type tumor spheroids was designed to identify active combinations of targeted small molecules and PI3K pathway inhibitors. Complex spheroids include a stromal component modeled by human endothelial cells (HUVEC) and fibroblasts modeled by human mesenchymal stem cells (MSCs). The concentration ranges selected for each drug and investigational agent were based upon clinically achievable concentrations if the clinical Cmax of the agent was known.
Compounds. The drugs and investigational agents: inavolisib (NSC800729), alpelisib (NSC765974), duvelisib (NSC772469), copanlisib (NSC816437), ipatasertib (NSC767898), afuresertib (NSC778305), talazoparib (NSC767125), sapanisertib (NSC764658), selumetinib (NSC741078), tovorafenib (DAY101, NSC766906), vemurafenib (NSC761431), ravoxertinib (NSC781343), sotorasib (NSC818433), MRTX1133 (NSC 836407), abemaciclib (NSC 768073), palbociclib (NSC758247), venetoclax (NSC 766270), SY5609 (NSC837396), enzalutamide (NSC755605), and darolutamide (NSC825331), were obtained from the National Cancer Institute (NCI) Developmental Therapeutics Program Chemical Repository. The FDA-approved anticancer drug set is available from the NCI Developmental Therapeutics Program. […] The stock solutions were prepared in dimethyl sulfoxide (DMSO, Sigma-Aldrich, St. Louis, MO, cat. D2650) at 800-fold the tested concentration and stored at -70 degrees C prior to their use. All drugs and investigational agents were tested over a range starting from a high concentration at or near the clinical Cmax and decreasing in half-log increments. If the clinical Cmax for an agent had not been determined, the highest concentration tested was 10 microM.
Cell Culture. All cells were maintained in an incubator at 37 degrees C and 5% CO2 with 95% humidity. The PDC lines were cultured according to standard operating procedures established by the NCI PDMR (https://pdmr.cancer.gov/sops/default.htm). All PDCs were thawed and cultured in Matrigel-coated flasks prepared with a working solution of 1X Ham's F-12 nutrient mix, without supplementation (Invitrogen, Waltham, MA, cat. 11765054), 100 U/mL penicillin-streptomycin (Invitrogen, cat. 15140122), and 2.5% Matrigel (Corning Inc., Corning, NY, cat. 354248) for the first three passages. The 354836-022-R-J1-PDC, 475296-252-R-J1-PDC, and 997726-040-R-J2-PDC lines were cultured in 6A media, which includes advanced DMEM/F-12 (Thermo Fisher Scientific, cat. 12634028), 10 mM HEPES (Thermo Fisher Scientific, cat. 15630080), 1X GlutaMAX supplement (Thermo Fisher Scientific, cat. 35050061), 0.1 mg/mL primocin (InvivoGen, San Diego, CA, cat. ant-pm-2), 10% defined fetal bovine serum, heat inactivated (HyClone Laboratories Inc., Logan, UT, cat. SH30070.03HI), 50% L-WRN conditioned media (ATCC, cat. CRL-3276), 1.25 mM N-Acetyl-L-cysteine (Sigma-Aldrich, cat. A9165), 10 mM nicotinamide (Sigma-Aldrich, cat. N0636), 1X B-27 supplement (Thermo Fisher Scientific, cat. 17504044), 1X N-2 supplement (Thermo Fisher Scientific, cat. 17502048), and 10 microM Y-27632 dihydrochloride (Tocris Bioscience, Bristol, United Kingdom, cat. 1254). The 624824-186-R-J2-PDC line was cultured in 6C/Colon 1B media, which includes all 6A media components plus 50 ng/mL human EGF recombinant protein (Thermo Fisher Scientific, cat. PHG0311). […]

Not every entry of the source has a single result; some have several. The other results are left out here. There may be further records. Results that share an entry are repeated measurements (runs, samples, wells, individuals or studies). Marks such as (2×) say how often a value occurs here.
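Further: spheroids exposed to compounds for seven days before reading.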

Take `C=CC(=O)N1CCN(c2nc(=O)n(-c3c(C)ccnc3C(C)C)c3nc(-c4c(O)cccc4F)c(F)cc23)C(C)C1` (stereo not given): the viability, T/C is given as 80.9, 89.6, 120, 113% (compound alone 0.0316 µM) and 96.9, 111, 85.5, 108% (compound alone 1 µM).

For the molecule `C[C@@H](NC(=O)c1ncnc(N)c1Cl)c1ncc(C(=O)Nc2cc(C(F)(F)F)c(Cl)cn2)s1`, the viability, T/C is 86.7, 109, 77.4, 96.5% (compound alone 1 µM) and 88.2, 116, 114, 113% (compound alone 3.16 µM).

For `Cn1nccc1Nc1nccc(-c2ccn(C(CO)c3ccc(Cl)c(F)c3)c(=O)c2)n1` (stereo not given), the viability, T/C reads like this: (compound alone 0.0316 µM) 99.8, 118, 85.5, 102%; (compound alone 1 µM) 77.3, 86.7, 82.2, 125%.

With `CCN1CCN(Cc2ccc(Nc3ncc(F)c(-c4cc(F)c5nc(C)n(C(C)C)c5c4)n3)nc2)CC1`, the viability, T/C reads like this: (compound alone 0.01 µM) 99.2, 88.2, 73.7, 80.3%; (compound alone 0.0316 µM) 131, 83.4, 77.5, 98.9%; (compound alone 0.1 µM) 106, 88.8, 104, 133%.

Turning to `CC(=O)c1c(C)c2cnc(Nc3ccc(N4CCNCC4)cn3)nc2n(C2CCCC2)c1=O`, the viability, T/C (compound alone 0.001 µM) is recorded as 106, 93.6, 96.3, 132%; the viability, T/C (compound alone 0.0316 µM) was 87.1, 103, 84.6, 122%; the viability, T/C (compound alone 0.1 µM) is listed as 79.2, 111, 116, 89%.

On to `CC1(C)CCC(Nc2ncc(C(F)(F)F)c(-c3c[nH]c4c(P(C)(C)=O)c(C#N)ccc34)n2)CN1` (stereo not given), for which the viability, T/C (compound alone 0.316 µM) was 79.7, 91.1, 51.6, 56.4%; the viability, T/C (compound alone 1 µM) is 57.8, 54.8, 32.2, 39.7%; the viability, T/C (compound alone 10 µM) was 50, 39.2, 25.5, 24.2%. Besides, the IC50 (commonly the point on the concentration scale where inhibition reaches its midpoint) (compound alone) was > 10 µM, 2.03 µM, 343 nM, 459 nM.

For `CCCS(=O)(=O)Nc1ccc(F)c(C(=O)c2c[nH]c3ncc(-c4ccc(Cl)cc4)cc23)c1F`, the viability, T/C (compound alone 3.16 µM) is 58, 80.5, 87.1, 70%.

For `CNC(=O)c1ccc(N2C(=S)N(c3ccc(C#N)c(C(F)(F)F)c3)C(=O)C2(C)C)cc1F`, where the note is “compound alone 10 µM”, the viability, T/C was 81, 70.1, 118, 99%.

Turning to `CC(Cn1ccc(-c2ccc(C#N)c(Cl)c2)n1)NC(=O)c1cc(C(C)O)[nH]n1` (stereo not given), the viability, T/C is, setting by setting: (compound alone 0.0316 µM) 96.3, 90.1, 92.3, 126%; (compound alone 0.1 µM) 83.4, 108, 83.2, 120%; (compound alone 0.316 µM) 105, 92.8, 118, 108%; (compound alone 1 µM) 95.4, 78.5, 96, 104%; (compound alone 10 µM) 76, 87.8, 82.4, 133%.

`Cn1cnc2c(F)c(Nc3ccc(Br)cc3Cl)c(C(=O)NOCCO)cc21`: the viability, T/C runs as follows: (compound alone 0.00949 µM) 87.2, 82.8, 85.3, 116%; (compound alone 0.03 µM) 75.6, 76.7, 87.8, 107%; (compound alone 0.0949 µM) 72.3, 89.9, 88, 105%; (compound alone 0.3 µM) 68.3, 70.2, 91.1, 115%.

Consider `Cc1nc(NC(=O)N2CCCC2C(N)=O)sc1-c1ccnc(C(C)(C)C(F)(F)F)c1` (stereo not given), for which the viability, T/C reads like this: (compound alone 0.316 µM) 81.5, 108 (2×), 74.8, 104, 84.9, 94, 103%; (compound alone 1 µM) 109, 78.6, 82.9, 83.6, 103, 97.5, 97.2, 105%; (compound alone 3.16 µM) 88.1, 82.5, 97.5, 79.6, 81.9, 107, 97.9, 92.5%; (compound alone 10 µM) 75.1, 67.4, 81.5, 67.8, 97.8, 82.2, 85.6, 107%.

For the molecule `Cn1ncnc1[C@H]1c2n[nH]c(=O)c3cc(F)cc(c23)N[C@@H]1c1ccc(F)cc1`, the viability, T/C (compound alone 0.001 µM) is listed as 96.9, 117, 87.5, 101%.

In the case of `C#Cc1c(F)ccc2cc(O)cc(-c3ncc4c(N5CC6CCC(C5)N6)nc(OCC56CCCN5CC(F)C6)nc4c3F)c12` (stereo not given), the viability, T/C runs as follows: (compound alone 0.1 µM) 93.4, 76.7, 121, 95.2%; (compound alone 1 µM) 123, 86.3, 98.8, 89.3%; (compound alone 3.16 µM) 116, 103, 119, 92.6%; (compound alone 10 µM) 100, 87.7, 116, 90.5%.

On to `CC(Nc1ncnc2nc[nH]c12)c1cc2cccc(Cl)c2c(=O)n1-c1ccccc1` (stereo not given), for which the viability, T/C is 91, 84.3, 83.3, 97.2, 94.7, 110, 81.6, 86.8% (compound alone 0.0316 µM); 106 (3×), 108, 72.2, 107, 88.9, 104% (compound alone 1 µM); 93.8, 95.1, 91.7, 99.8 (2×), 123, 73.9, 111% (compound alone 3.16 µM).

On to `CC(Nc1ccc2c(c1)OCCn1cc(N3C(=O)OCC3C(F)F)nc1-2)C(N)=O` (stereo not given), for which the viability, T/C (compound alone 0.00316 µM) was 106, 117, 90.2, 108, 119, 86.2, 78.6, 102% and the viability, T/C (compound alone 0.0316 µM) is given as 91.6, 90.9, 82.2, 107, 120, 110, 68.5, 90.1%.

Regarding `Cn1ncc(Cl)c1-c1cc(C(=O)NC(CN)Cc2cccc(F)c2)sc1Cl` (stereo not given), the viability, T/C is, setting by setting: (compound alone 0.0316 µM) 114, 82.9, 93.1, 86.2%; (compound alone 0.316 µM) 111, 71.7, 91.7, 91.3%; (compound alone 10 µM) 57.9, 92.8, 56.6, 58.9%.

As to `CC1(C)CCC(CN2CCN(c3ccc(C(=O)NS(=O)(=O)c4ccc(NCC5CCOCC5)c([N+](=O)[O-])c4)c(Oc4cnc5[nH]ccc5c4)c3)CC2)=C(c2ccc(Cl)cc2)C1`, the viability, T/C by setting is: (compound alone 0.0316 µM) 88.7, 87.6, 115, 109%; (compound alone 0.1 µM) 92.3, 98.3, 82.4, 109%; (compound alone 10 µM) 62.6, 50.4, 86.5, 81.7%.

For `COc1c(OCCCN2CCOCC2)ccc2c3n(c(=NC(=O)c4cnc(N)nc4)nc12)CCN3`, the viability, T/C reads like this: (compound alone 0.01 µM) 99.5, 102, 99.9, 76.4, 93.5, 92.4, 103% (2×); (compound alone 0.0316 µM) 84.4, 80.3, 96.8, 83.6, 87.7, 110, 81, 90.5%; (compound alone 0.1 µM) 102, 96.3, 81.1, 85.8, 85.6, 93.4, 76.5, 88.1%.

For `CC(C)n1nc(-c2ccc3oc(N)nc3c2)c2c(N)ncnc21`, the viability, T/C is 72.2, 96.8, 117, 105% (compound alone 0.000316 µM); 76.4, 127, 84.5, 90.6% (compound alone 0.00316 µM); 73, 81.5, 94, 100% (compound alone 0.01 µM).

Turning to `CC(C)NCC(C(=O)N1CCN(c2ncnc3c2C(C)CC3O)CC1)c1ccc(Cl)cc1` (stereo not given), the viability, T/C runs as follows: (compound alone 0.0316 µM) 106, 116, 88.3, 111%; (compound alone 10 µM) 107, 93.7, 79.8, 118%.
